Measurements taken from patent publication US11932625B2, “Inhibitors of cyclin-dependent kinase 12 (CDK12) and uses thereof” (Dana-Farber Cancer Institute, Inc., priority 2016, dated 2024).

How the values were obtained:
Jurkat cells = assay: Anti-proliferation activity on Jurkat cells ([…] GLO); format: cell-based; details: Homo sapiens, 72 hours, read-out: IC50 (nM) Jurkat Cell
Description: (§1) Select compounds described herein were evaluated for structure-activity analyses. Exemplary results of the IC50 values of exemplary compound BSJ-01-175-1 on other CDK kinases from an Invitrogen biochemical assay are shown in Table 1. In vitro kinase assays were performed by Life Technologies in duplicate at an ATP concentration=Km for each kinase. The IC50 on Jurkat cell is from an anti-proliferaction assay; IC50 on CDK2, CDK7 and CDK9 is from a biochemical kinase inhibition assay from Life technology.
Assay of Anti-Proliferation Activity on Jurkat Cells
Jurkat cells were plated at 30,000 cells/well and treated with a titration of compounds indicated. Cells were allowed to grow for 72 hours. Cells were assayed using […] GLO (Promega) to determine cell viability by measuring the amount of ATP present, which is an indicator of cell metabolic activity. Results are graphedcalculated as relative as luminescence as compared to DMSOP=.cent values. Curves were generated using PRISM and an IC50 value was determined.

CDK7/cyclin H/MNAT1 = biological target: T1, CDK7/cyclin H/MNAT1 (Homo sapiens, UniProt P50613); assay: Invitrogen/Life Technologies biochemical kinase inhibition assay
T1 construct: purchased Life Technologies (Invitrogen)
T1 sequence (P50613 whole entry): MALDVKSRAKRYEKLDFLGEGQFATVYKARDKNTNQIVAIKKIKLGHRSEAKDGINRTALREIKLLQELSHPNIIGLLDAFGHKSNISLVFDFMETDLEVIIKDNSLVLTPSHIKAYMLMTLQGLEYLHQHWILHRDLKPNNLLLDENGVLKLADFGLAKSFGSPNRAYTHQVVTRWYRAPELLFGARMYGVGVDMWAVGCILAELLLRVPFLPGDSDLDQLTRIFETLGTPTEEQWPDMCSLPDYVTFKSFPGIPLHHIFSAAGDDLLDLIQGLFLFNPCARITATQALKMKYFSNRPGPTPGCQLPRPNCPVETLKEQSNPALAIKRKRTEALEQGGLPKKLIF
T1 sequence (P51946 whole entry partner): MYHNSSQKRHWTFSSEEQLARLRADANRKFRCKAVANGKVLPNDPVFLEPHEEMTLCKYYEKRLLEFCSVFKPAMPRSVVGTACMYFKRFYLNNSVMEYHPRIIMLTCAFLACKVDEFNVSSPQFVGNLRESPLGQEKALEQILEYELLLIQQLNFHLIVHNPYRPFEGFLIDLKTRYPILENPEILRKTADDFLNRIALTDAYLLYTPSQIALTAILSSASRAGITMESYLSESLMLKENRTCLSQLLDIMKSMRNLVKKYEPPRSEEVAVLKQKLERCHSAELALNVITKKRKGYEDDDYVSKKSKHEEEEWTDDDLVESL
T1 sequence (P51948 whole entry partner): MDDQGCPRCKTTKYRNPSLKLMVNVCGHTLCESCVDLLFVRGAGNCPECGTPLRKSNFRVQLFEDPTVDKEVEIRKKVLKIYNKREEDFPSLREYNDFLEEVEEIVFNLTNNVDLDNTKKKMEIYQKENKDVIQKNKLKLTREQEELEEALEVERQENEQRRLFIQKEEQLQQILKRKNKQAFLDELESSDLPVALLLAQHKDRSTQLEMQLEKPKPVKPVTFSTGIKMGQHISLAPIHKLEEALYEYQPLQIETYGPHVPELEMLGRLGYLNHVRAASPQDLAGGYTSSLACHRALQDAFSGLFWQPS
Description: as §1

CDK2/cyclin A = biological target: T2, CDK2/cyclin A (Homo sapiens, UniProt P24941); assay: as above
T2 construct: purchased Life Technologies (Invitrogen)
Description: as §1

CDK9/cyclin T1 = biological target: T3, CDK9/cyclin T1 (Homo sapiens, UniProt P50750); assay: as above
T3 construct: purchased Life Technologies (Invitrogen)
T3 sequence (P50750 whole entry): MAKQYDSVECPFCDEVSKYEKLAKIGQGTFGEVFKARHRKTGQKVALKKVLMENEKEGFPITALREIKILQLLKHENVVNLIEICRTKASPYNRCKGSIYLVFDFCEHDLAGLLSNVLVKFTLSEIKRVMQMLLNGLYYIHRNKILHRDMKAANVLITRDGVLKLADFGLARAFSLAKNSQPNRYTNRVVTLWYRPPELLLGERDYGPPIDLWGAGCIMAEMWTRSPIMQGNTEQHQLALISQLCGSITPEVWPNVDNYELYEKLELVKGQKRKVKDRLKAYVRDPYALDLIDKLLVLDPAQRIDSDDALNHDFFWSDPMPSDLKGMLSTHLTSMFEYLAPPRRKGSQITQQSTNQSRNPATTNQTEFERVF
T3 sequence (O60563 whole entry partner): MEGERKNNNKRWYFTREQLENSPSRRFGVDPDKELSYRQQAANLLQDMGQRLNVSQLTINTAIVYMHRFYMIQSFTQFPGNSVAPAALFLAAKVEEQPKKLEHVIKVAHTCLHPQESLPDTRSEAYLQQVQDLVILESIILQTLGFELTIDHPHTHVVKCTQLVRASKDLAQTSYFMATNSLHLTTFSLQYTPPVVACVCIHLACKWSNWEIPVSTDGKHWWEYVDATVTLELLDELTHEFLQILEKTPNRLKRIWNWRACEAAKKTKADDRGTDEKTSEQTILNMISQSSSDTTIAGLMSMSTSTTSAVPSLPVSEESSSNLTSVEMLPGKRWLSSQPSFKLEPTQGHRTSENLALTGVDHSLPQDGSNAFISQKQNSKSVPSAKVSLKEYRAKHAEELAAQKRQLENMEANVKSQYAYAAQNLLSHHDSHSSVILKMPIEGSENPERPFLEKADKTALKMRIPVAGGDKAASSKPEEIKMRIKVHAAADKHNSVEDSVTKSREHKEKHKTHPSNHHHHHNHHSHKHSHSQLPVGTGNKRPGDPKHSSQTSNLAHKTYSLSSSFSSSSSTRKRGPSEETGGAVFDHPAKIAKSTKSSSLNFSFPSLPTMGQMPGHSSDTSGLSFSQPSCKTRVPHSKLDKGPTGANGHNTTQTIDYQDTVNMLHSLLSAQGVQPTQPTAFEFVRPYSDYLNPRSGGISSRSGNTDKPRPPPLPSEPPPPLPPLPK
Description: as §1

[1] = tested on: HAP1 CDK12 C1039S/CDK13 C1017S double mutants cells; assay: Anti-proliferative activity, HAP1 CDK12 C1039S/CDK13 C1017S double mutant cells (CellTiter-Glo); format: cell-based; details: Homo sapiens, HAP1; CDK12 C1039S/CDK13 C1017S double mutant, 72 hrs, CellTiter-Glo; read-out: HAP1 CDK12/13 mutant (IC50)
Description: (§2) Select compounds described herein were evaluated for anti-proliferative activity. HAP1 WT and CDK12 C1039S/CDK13 C1017S double mutants cells were seeded at a density of 12,000 cells/well in 96-well plates. Twenty-four hours later cells were then treated with compound BSJ-01-175-1 in a 10-pt dose escalation format from 1 nM to 10 μM or DMSO control for 72 hrs. After 72 hrs, cells were assayed using CellTiter-Glo Luminescent Cell Viability Assay (Promega) to determine cell viability by measuring the amount of ATP present in each sample cell population, which is an indicator of cell metabolic activity. Results are graphed as fraction of the DMSO control at 72 hrs. All data points were performed in biological triplicate.

HAP1 WT cells = assay: Anti-proliferative activity, HAP1 WT cells (CellTiter-Glo); format: cell-based; details: Homo sapiens, 72 hrs
Description: as §2

[2] = ATP concentration = Km, duplicate, read-out: IC50 (nM) CDK7/cyclin H/MNAT1
[3] = ATP concentration = Km, duplicate, read-out: IC50 (nM) CDK2/Cyclin A
[4] = ATP concentration = Km, duplicate, read-out: IC50 (nM) CDK9/Cyclin T1

Row | SMILES | IC50 (Jurkat cells) | IC50 (CDK7/cyclin H/MNAT1; [2]) | IC50 (CDK2/cyclin A; [3]) | IC50 (CDK9/cyclin T1; [4]) | IC50 (CDK7/cyclin H/MNAT1; [ATP] Tested Km app (Table 1), read-out: Invitrogen Technology: IC50 (nM), CDK7/cyclin H/MNAT1) | IC50 (CDK2/cyclin A; [ATP] Tested Km app (Table 1), read-out: Invitrogen Technology: IC50 (nM), CDK2/cyclin A) | IC50 (CDK9/cyclin T1; [ATP] Tested Km app (Table 1), read-out: Invitrogen Technology: IC50 (nM), CDK9/cyclin T1) | IC50 [1] | IC50 (HAP1 WT cells)
1 | C=CC(=O)Nc1ccc(O[C@@H]2CCC[C@@H](Nc3ncc(Cl)c(-c4c[nH]c5ccccc45)n3)C2)cc1 [BSJ-01-033, N-(4-((1R,3R)-3-(5-chloro-4-(1H-indol-3-yl)pyrimidin-2-ylamino)cyclohexyloxy)phenyl)acrylamide] | 140 nM | 587 nM | > 10000 nM | 585 nM | – | – | – | – | –
2 | CN(C)C/C=C/C(=O)Nc1ccc(O[C@@H]2CCC[C@@H](Nc3ncc(Cl)c(-c4c[nH]c5ccccc45)n3)C2)cc1 [BSJ-01-175, (E)-N-(4-((1R,3R)-3-(5-chloro-4-(1H-indol-3-yl)pyrimidin-2-ylamino)cyclohexyloxy)phenyl)-4-(dimethylamino)but-2-enamide] | 161 nM | 121 nM | 4510 nM | 367 nM | 121 nM | 4510 nM | 367 nM | 670 nM | 313 nM
3 | C=CC(=O)Nc1ccc(N2CCC[C@@H](Nc3ncc(Cl)c(-c4c[nH]c5ccccc45)n3)C2)cc1 [BSJ-02-139, (R)—N-(4-(3-((5-chloro-4-(1H-indol-3-yl)pyrimidin-2-yl)amino)piperidin-1-yl)phenyl)acrylamide] | – | 162 nM | 3550 nM | 171 nM | – | – | – | – | –
4 | C=CC(=O)Nc1cc(F)c(N2CCC[C@@H](Nc3ncc(Cl)c(-c4c[nH]c5ccccc45)n3)C2)cc1C [BSJ-03-005, (R)—N-(4-(3-((5-chloro-4-(1H-indol-3-yl)pyrimidin-2-yl)amino)piperidin-1-yl)-5-fluoro-2-methylphenyl)acrylamide] | 132 nM | 118 nM | 266 nM | 230 nM | – | – | – | – | –
5 | C=CC(=O)Nc1cc(OC)c(N2CCC[C@@H](Nc3ncc(Cl)c(-c4c[nH]c5ccccc45)n3)C2)cc1C [BSJ-03-014, (R)—N-(4-(3-((5-chloro-4-(1H-indol-3-yl)pyrimidin-2-yl)amino)piperidin-1-yl)-5-methoxy-2-methylphenyl)acrylamide] | 344 nM | 403 nM | 3360 nM | 522 nM | – | – | – | – | –
6 | C=CC(=O)Nc1ccc(O[C@@H]2CCC[C@@H](Nc3ncc(Cl)c(-c4c[nH]c5ccccc45)n3)C2)c(F)c1 [BSJ-03-161, N-(4-(((1R,3R)-3-((5-chloro-4-(1H-indol-3-yl)pyrimidin-2-yl)amino)cyclohexyl)oxy)-3-fluorophenyl)acrylamide] | 62.2 nM | 878 nM | > 10000 nM | 786 nM | – | – | – | – | –
7 | CN(C)C/C=C/C(=O)Nc1ccc(O[C@@H]2CCC[C@@H](Nc3ncc(Cl)c(-c4c[nH]c5ccccc45)n3)C2)c(F)c1 [BSJ-03-162, (E)-N-(4-(((1R,3R)-3-((5-chloro-4-(1H-indol-3-yl)pyrimidin-2-yl)amino)cyclohexyl)oxy)-3-fluorophenyl)-4-(dimethylamino)but-2-enamide] | 154 nM | – | 3570 nM | 286 nM | – | – | – | – | –

Where two headings read alike, the source gives them in different places.
